The full ranking holds about 81,000 sequences; the median of “one-hybrid fitness for binding NBS DNA” is about -0.1, and the highest 2% start at about 0.36. Some of the results follow.
B1: Caulobacter ParB omega fusion; a variant is named by its letters at X, in order, B8GW30 (parent)
chain: MESVVVGEPGMSEGRRGLGRGLSALLGEVDAAPAQAPGEQLGGSREAPIEILQRNPDQPRRTFREEDLEDLSNSIREKGVLQPILVRPSPDTAGEYQIVAGERAWRAAQRAGLKTVPIMVRELDDLAVLEIGIIENVQRADLNVLEEALSYKVLMEKFERTQENIAQTIGKSXSHVANXMRLLXLPDEVQSYLVSGELTAXHARAIAAAADPVALAKQIIEGGLSVRETEALARKAPNLSAGKSKGGRPPRVKDTDTQALESDLSSVLGLDVSIDHRGSTGTLTITYATLEQLDDLCNRLTRGI

Variants of: B1
Assay: one-hybrid fitness for binding NBS DNA (the Noc-binding site; scaled: cognate 1, non-cognate 0); higher = stronger binding
Settings: with NBS DNA site
Summary of the method: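 On M9-minus-histidine containing 0.1 mM IPTG and 5 mM 3-AT, E. coli USO cells with a HIS3 reporter, site 19 bp from the promoter, grew 48 hours at 37°C to select Caulobacter ParB libraries randomised at four specificity codons. Plasmids from before and after were Illumina-sequenced, with three replicate libraries pooled and variants under 10 reads left out. Fitness is the log change in variant-to-wild-type read ratio, rescaled against cognate and non-cognate.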

one-hybrid fitness for binding NBS DNA, 0.275:
QRCF

one-hybrid fitness for binding NBS DNA, 0.414:
MARR

one-hybrid fitness for binding NBS DNA, 0.315:
QVRA

one-hybrid fitness for binding NBS DNA, 0.234:
THQR

one-hybrid fitness for binding NBS DNA, 0.228:
QTHI

one-hybrid fitness for binding NBS DNA, 0.307:
QTHQ

one-hybrid fitness for binding NBS DNA, 0.597:
QHKA

one-hybrid fitness for binding NBS DNA, 0.244:
RQWR

one-hybrid fitness for binding NBS DNA, 0.242:
RFQT

one-hybrid fitness for binding NBS DNA, ≤ 0.2:
TEEC
GVWN
WGRY
HNLS
TYNS
TSTR
SRMW
VNNI
QAVY
YGVR
QAMA
DNPC
HLST
CSGG
ESNS
QPCV
HDQT
AFTW
HKMM
YAPR
YQTA
PCPS
QDLD
PYTI
LGMY
CKAT
YCHW
RGCG
QCYI
IFWS
NIYS
KSPY
VLKR
RMCV
TGAP
SQDV
CCAD
TGKM
VKLI
MSEA
QQMK
TVCI
MREA
PSGQ
PSKA
TPFV
NRSV
RPTA
HNYR
WILR
RTTG
MLHT
DEHS
PMPR
SSMP
LPMI
ADSR
CSAC
TMSD
PGYG
AGTN
YEAS
YKPK
SDDM
VWQT
MNHR
TSLG
VVFN
FTLD
NMYE
GQPV
TNAP
KTQG
KDAR
STNE
QKSV
MTTF
GYAS
RFFG
AERS
YGSY
KNQS
KWEI
GCCT
QWGF
HVQG
LVAG
MYPS
PSQP
CLCC
RCEK
HMSV
IRCM
ARNR
RWSW
RPNP
GRSV
NNIG
NHWR
CNRE
ASVL
RFAG
RPNN
CDDA
DPHC
NTYD
RWGP
KPAT
QWMR
FKAC
QTVY
FTVP
NYYS
PTGG
QCLD
ALWG
QNLM
GPHD
MGSD
CGLG
VASS
RLDL
QPPW
TQPY
LRHY
GMPS
IKVE
YMPM
SWIL
RIWE
PLNF
PWQA
AKMV
NLHT
MAYR
AMLR
HMFL
EKLL
GCCR
SVTS
QKHG
SDAN
WAVQ
YLPH
CHRI
LNSK
ASMT
SPHP
NIIY
TASY
TAGH
QLWW
TFPA
SSTR
SDHQ
CMIT
EFVT
GTKV
CVFW
RKQH
YVPT
DVPM
NDNT
HASW
LRKN
NCAN
GARP
GWAG
DVRR
PPLG
HRYI
WTAA
CQSC
TIID
FLPN
WHKM
GNQC
HVQN
KDNI
IATV
SRGV
VRPE
IDVR
EGSD
AKGS
YLAR
SEPY
SRNC
VYLK
HVMS
RFNF
CPHV
LTKH
PQFT
CRRV
EKRS
RAGI
KHRI
SMIH
HRRW
APMF
YRSM
EDND
CVPS
FSFC
IMPT
ACHC
ELDS
ELLI
WCQT
LVLV
NFPS
PRSR
VIRR
SSKP
APDV
HPHW
GDDN
THNY
QGVV
DNAQ
TSKG
ACDL
RQWP
QFVR
YINM
AGNF
GPDT
VGYE
WLSK
SWLF
FLKE
IAGS
MPDR
VYDT
RKCH
GHLH
KGTF
HTQV
QWPP
QRWW
VPIW
IETC
RFHA
QMHG
NSQV
HEFP
NEER
IYWG
KIPT
SGTG
HMKC
QTLD
SFCL
TVEC
LFTP
FNNV
IFRM
FPHM
NLPE
SLAK
ANKV
RIGY
RLAA
GWKT
PLSS
GSCF
ARTR
TKSW
GVDD
RKWE
LRPI
RWGC
LKLR
YIPD
TIPK
LLHL
QGKW
GWMS
WRLI
CPWG
KPCD
PRVG
SSPP
VAPA
SDED
PLGP
QETA
FHES
AWGT
LKAM
NRSC
DGLS

one-hybrid fitness for binding NBS DNA, 0.216:
QYRP

one-hybrid fitness for binding NBS DNA, 0.349:
QQMA

one-hybrid fitness for binding NBS DNA, 0.501:
KRET

one-hybrid fitness for binding NBS DNA, 0.323:
TRST

Reference: a collection of fitness landscapes (doi:10.1016/j.celrep.2020.107928)
